Measurements reported in US20130236459A1 (MERRIMACK PHARMACEUTICALS, published 2013).
Read-outs that look alike come from different tables or passages of the source.

How the values were obtained:
[1] = target: T1, ErbB3 (HER3), endogenous on human tumor cell lines (human, UniProt P21860 20-1342); test: cell-based or functional assay
[2] = target: T2, IGF-1R (receptor for insulin-like growth factor 1), endogenous on human tumor cell lines (human, UniProt P08069 31-1367); test: cell-based or functional assay
T2 sequence (P08069 31-1367): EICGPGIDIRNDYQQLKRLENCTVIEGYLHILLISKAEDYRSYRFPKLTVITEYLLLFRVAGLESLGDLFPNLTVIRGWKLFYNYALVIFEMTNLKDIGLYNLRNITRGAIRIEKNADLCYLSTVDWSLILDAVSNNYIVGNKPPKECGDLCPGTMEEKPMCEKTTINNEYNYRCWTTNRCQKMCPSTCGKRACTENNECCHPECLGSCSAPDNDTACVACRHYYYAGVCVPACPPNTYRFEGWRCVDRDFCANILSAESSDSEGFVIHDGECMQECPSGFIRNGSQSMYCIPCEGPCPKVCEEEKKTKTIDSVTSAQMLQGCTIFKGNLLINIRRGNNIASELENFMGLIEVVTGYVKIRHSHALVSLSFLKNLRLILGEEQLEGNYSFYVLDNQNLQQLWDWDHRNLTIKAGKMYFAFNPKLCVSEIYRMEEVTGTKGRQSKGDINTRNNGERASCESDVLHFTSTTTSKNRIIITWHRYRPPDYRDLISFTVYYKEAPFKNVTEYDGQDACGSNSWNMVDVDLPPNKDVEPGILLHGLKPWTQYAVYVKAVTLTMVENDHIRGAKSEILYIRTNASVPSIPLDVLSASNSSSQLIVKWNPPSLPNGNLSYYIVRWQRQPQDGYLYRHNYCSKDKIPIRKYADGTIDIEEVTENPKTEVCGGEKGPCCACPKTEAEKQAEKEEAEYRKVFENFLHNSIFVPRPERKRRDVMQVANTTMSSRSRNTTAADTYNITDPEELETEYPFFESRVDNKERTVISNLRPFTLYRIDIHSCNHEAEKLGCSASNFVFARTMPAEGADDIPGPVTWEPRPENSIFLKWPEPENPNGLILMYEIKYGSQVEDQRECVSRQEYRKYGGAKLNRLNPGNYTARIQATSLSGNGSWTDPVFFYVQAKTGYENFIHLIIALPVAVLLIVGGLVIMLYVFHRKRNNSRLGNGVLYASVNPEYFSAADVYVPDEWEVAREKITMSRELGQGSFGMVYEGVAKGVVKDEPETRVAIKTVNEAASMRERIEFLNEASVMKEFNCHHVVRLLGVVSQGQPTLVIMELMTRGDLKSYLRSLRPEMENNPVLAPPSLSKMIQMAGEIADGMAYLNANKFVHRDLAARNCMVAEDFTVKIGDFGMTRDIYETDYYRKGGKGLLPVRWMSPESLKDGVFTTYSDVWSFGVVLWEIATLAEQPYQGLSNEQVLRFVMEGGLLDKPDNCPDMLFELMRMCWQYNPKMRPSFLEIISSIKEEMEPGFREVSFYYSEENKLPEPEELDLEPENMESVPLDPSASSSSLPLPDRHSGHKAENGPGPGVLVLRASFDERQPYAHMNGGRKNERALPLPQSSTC

[3] = target: T1, ErbB3 (HER3), endogenous on human tumor …; test: cell-based or functional assay; remark: listed apart in the source
[4] = target: T2, IGF-1R (receptor for insulin-like …); test: cell-based or functional assay; remark: listed apart in the source
[5] = target: T1, ErbB3 (HER3), endogenous on human tumor …; test: cell-based or functional assay; remark: listed apart in the source
[6] = target: T2, IGF-1R (receptor for insulin-like …); test: cell-based or functional assay; remark: listed apart in the source
[7] = target: T1, ErbB3 (HER3), endogenous on human tumor …; test: cell-based or functional assay; remark: listed apart in the source
[8] = target: T2, IGF-1R (receptor for insulin-like …); test: cell-based or functional assay; remark: listed apart in the source
[9] = target: T1, ErbB3 (HER3), endogenous on human tumor …; test: cell-based or functional assay; remark: listed apart in the source
[10] = target: T2, IGF-1R (receptor for insulin-like …); test: cell-based or functional assay; remark: listed apart in the source
[11] = target: T3, ErbB3-His (ErbB3 with a C-terminal hexa-histidine tag), human (human, UniProt P21860 fragment); test: ELISA, ErbB3-His coated plate, anti-Fc-HRP
T3 construct: Bought reagent; also called recombinant ErbB3
Method: 96-well REACTI-BIND plates (Pierce) are coated with 50 ul of ErbB3-His (ErbB3 with a C-terminal hexa-histidine tag—2 ug/ml in PBS) (“hexa-histidine” disclosed as SEQ ID NO:403) and incubated overnight at 4° C. The next day plates are washed with PBS+0.05% Tween-20 (PBS-T) and blocked for 1 hr. at room temperature with 100 ul of Protein-Free Blocking Buffer (Pierce). Plates are washed with PBS-T and 50 ul of each bispecific antibody is added in duplicate. Concentrations start at 500 nM (in PBS-T) and include ten additional two-fold dilutions and one blank (PBS-T only). Plates are incubated at room temperature for two hours and then washed with PBS-T. 50 ul of anti-Fc-HRP (Jackson Labs) is added at 1:40,000 in PBS-T, and plates are incubated in the dark for 1 hr. at room temperature. Plates are again washed with PBS-T and 100 ul of TMB substrate (Thermo Scientific, TMB and peroxide solution mixed 1:1) added. The plates are incubated for 5-15 minutes at room temperature until a blue color develops, and the reaction is stopped with 100 ul of STOP solution (Cell Signaling Technology). The absorbance was read at 450 nm on a PerkinElmer Envision plate reader, and binding curves were generated with GraphPad PRISM, using a log (agonist) vs response (three parameter) non-linear regression curve fit.

[12] = target: T1, ErbB3 (HER3), endogenous on human tumor …; test: cell-based or functional assay; remark: listed apart in the source
[13] = target: T2, IGF-1R (receptor for insulin-like …); test: cell-based or functional assay; remark: listed apart in the source
[14] = target: T1, ErbB3 (HER3), endogenous on human tumor …; test: cell-based or functional assay; remark: listed apart in the source
[15] = target: T2, IGF-1R (receptor for insulin-like …); test: cell-based or functional assay; remark: listed apart in the source

pErbB3 IC50 (BxPC-3) [1]: 2.4e-10 M (inferred)
pErbB3 IC50 (DU145) [1]: 2e-10 M (inferred)
pIGF-1R IC50 (DU145) [2]: 1.1e-09 M (inferred)
pAKT IC50 (BxPC-3, HRG 20 ng/ml) [3]: 4.32e-10 M
pAKT IC50 (BxPC-3, HRG 200 ng/ml) [3]: 5.5e-10 M
pErbB3 IC50 (BxPC-3, HRG 20 ng/ml) [3]: 2.69e-10 M
pErbB3 IC50 (BxPC-3, HRG 200 ng/ml) [3]: 2.66e-10 M
pAKT IC50 (BxPC-3, IGF1 40 ng/ml) [4]: 1.3e-09 M
pAKT IC50 (BxPC-3, IGF1 400 ng/ml) [4]: 5.9e-10 M
pIGF1R IC50 (BxPC-3, IGF1 40 ng/ml) [4]: 5.1e-10 M
pIGF1R IC50 (BxPC-3, IGF1 400 ng/ml) [4]: 4.4e-10 M
pErbB3 % Inhibition (BxPC-3) [5]: 98%
pErbB3 IC50 (BxPC-3) [5]: 1.9e-10 M (inferred)
pIGF1R % Inhibition (BxPC-3) [6]: 91%
pIGF1R IC50 (BxPC-3) [6]: 5.2e-10 M (inferred)
pErbB3 % Inhibition (BxPC-3) [7]: 94.9%
pErbB3 IC50 (BxPC-3) [7]: 2.4e-10 M (inferred)
pIGF1R % Inhibition (BxPC-3) [8]: 93%
pIGF1R IC50 (BxPC-3) [8]: 9.5e-10 M (inferred)
pErbB3 IC50 (BxPC-3) [9]: 5e-10 M (inferred)
pIGF-1R IC50 (BxPC-3) [10]: 1.1e-09 M (inferred)
EC50 [11]: 300 pM
pErbB3 IC50 (BxPC-3) [12]: 2.1e-10 M (inferred)
pIGF1R IC50 (BxPC-3) [13]: 2.6e-09 M (inferred)
pErbB3 IC50 (BxPC-3, HRG+IGF1) [14]: 0.5 nM
pIGF-1R IC50 (BxPC-3, HRG+IGF1) [15]: 1.1 nM
B1: SF-G1-C8 (bispecific antibody, human IgG1, kappa)
heavy: EVQLLQSGGGLVQPGGSLRLSCAASGFTFSVYPMHWVRQAPGKGLEWVSSISSSGGATRYADSVKGRFTISRDNSKNTLYLQMNSLRAEDTAVYYCAKDFYDILTGNAFDIWGQGTTVTVSSASTKGPSVFPLAPSSKSTSGGTAALGCLVKDYFPEPVTVSWNSGALTSGVHTFPAVLQSSGLYSLSSVVTVPSSSLGTQTYICNVNHKPSNTKVDKKV[left out - human IgG1 Fc]GGGSGGGGSGGGGSQVQLVQSGGGLVQPGGSLRLSCAASGFTFDDYAMHWVRQAPGKGLEWVAGISWNSGSIGYADSVKGRFTISRDNAKNSLYLQMNSLRPEDTAVYYCARDLGYNQWVEGFDYWGQGTLVTVSSASTGGGGSGGGGSGGGGSGGGGSSYELTQDPAVSVALGQTVRITCQGDSLRSYYASWYQQKPGQAPVLVIYGKNNRPSGIPDRFSGSTSGNSASLTITGAQAEDEADYYCNSRDSSGNHWVFGGGTKVTVLG
light: DIQMTQSPSSLSASTGDRVTITCRASQGISSYLAWYQQKPGKAPKLLIYAASTLQSGVPSRFSGSGSGTDFTLTISSLQPEDFATYYCQQYFTFPLTFGGGTKVEIKRTVAAPSVFIFPPSDEQLKSGTASVVCLLNNFYPREAKVQWKVDNALQSGNSQESVTEQDSKDSTYSLSSTLTLSKADYEKHKVYACEVTHQGLSSPVTKSFNRGEC
notes: IgG1-(scFv)2: anti-IGF-1R SF Fab, anti-ErbB3 C8 scFv; also called 16F; SF-C8
